Results on 34 variants are retold here after the RNAGym collection of RNA variant scans (doi:10.1093/nar/gkz1192).

Sequences and labels used below:
B1: CPEB3 Ribozyme (parent)
chain: UAACAGGGGGCCACAGCAGAAGCGUUCACGUCGCAGCCCCUGUCAGAUUCUGGUGAAUCUGCGAAUUCUGCUGUAUAUCUC

The source gives no read counts; variants with many changes may rest on few reads.

This data set covers variants of B1. Nature of the data set: self-cleavage, relative activity (ratio to wild type); higher = more cleavage; in vitro, sequencing. Put shortly:
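CPEB3 self-cleaving ribozyme mutant libraries were made by rounds of error-prone PCR, barcoded, and transcribed in vitro with T7 RNA polymerase for 5 hours at 37°C. Cleavage occurred during transcription and a 15 min DNase I step before EDTA stop. RNAs were reverse transcribed with template switching and Illumina-sequenced, with DNA sequencing mapping barcodes to variants. Relative activity is the variant's cleaved/total read fraction divided by wild type's (minimum 5 reads), averaged across three batches.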
Consider UAACAGGGGGCCACAGCAGAAGCGUCCACGUCGCAGCCCCUGUCAGCUUCUGAUGAAUCUGCAAAUUCUGCUGUAUAUAUC [U26C A47C G53A G63A C79A], for which the self-cleavage stood at 0.49.
Consider UAACAGGGGGCCACAGCAGAAGCGUCCACGUCGCAGCCCCUGUCGGAUGCUGGCGAAUCUGCGAAUUCUGCUGUAUAUCUC [U26C A45G U49G U54C], for which the self-cleavage turned out to be 0.29.
Consider UAACAGGGGGCCACAGCAGAAGCGUCCACGUCGCAGCCCCUGUCAGAUUCUGGUGGAUCUGCGAAUUCCGCUGUAUAUCUC [U26C A56G U69C], for which the self-cleavage was determined as 0.31.
Then UAACAGGGGGCCACAGCAGAAGCGUCCACGUCGCAGCCGCUGUCGGAUUCUGGUGAAUCUGCGAAUUCUGCUGUAUAUCUC [U26C C39G A45G], with 0.22; and UAACAGGGGGCCACAGCAGAAGCGUCCACGUCGCUGCCCCCGUCGGAUUCUGGAGAAUCUGCGAAUUCUGCCGUAUACCUC [U26C A35U U41C A45G U54A U72C U78C], with 0.08.
For the variant UAACAGGGGGCCACAGCAGAAGCGUCCACGUCGCAGCCCCUGUCAGAUUCUGGUGCAUCUGCGAAUUCUGCUGUAUUUCUC [U26C A56C A77U], the self-cleavage amounted to 0.46.
Regarding UAACAGGGGGCCACAGCAGAAGCGUCCACGUCGCGGCCCCUGUCAGAUUCGGGUGAAUCUGCGUAUUCUGCCGUAUAUCUC [U26C A35G U51G A64U U72C], the self-cleavage stood at 0.41.
To UAACAGGGGGCCACAGCAGAAGCGUCCACGUCGCUGCCCCUGUCAGAUCCUCGUGAAUCUGCGAAUUCUGCUGCAUAUCUC [U26C A35U U49C G52C U74C] belongs 0.13.
Then UAACAGGGGGCCACAGCAGAAGCGUCCACGUCGCAGCCCCUGUCAGUUUCUGGCGAAUCUGUGAAUUCUGCUGUAUAUCUC [U26C A47U U54C C62U], with 0.25; and UAACAGGGGGCCACAGCAGAAGCGUCCACGUCGCUGCCCCUGUCAGAUUCUGGUGAAUCUGCGAAUUCCGCUGUAUACCUC [U26C A35U U69C U78C], with 0.22.
Then UAACAGGGGGCCACAGCAGAAGCGUCGACGUCGCAGCCCCCGUCAGAUACCGGUGAAUCUGCGAAUUCCGCUGUAUAUCUC [U26C C27G U41C U49A U51C U69C], with 0.06.
For the variant UAACAGGGGGCCACAGCAGAAGCGUCCACGUCGCAGCCCUUCUCAGAUUCUGGUGAACCUGCGAAUUCUGCUGUAUAUCUC [U26C C40U G42C U58C], the self-cleavage amounted to 0.15.
Take UAACAGGGGGCCACAGCAGAAGCGUCCACGUGGCAGCCCCUGUCAGACUCUGGUGAAUCAGCGAAUACUGCUGUAUAUCUU [U26C C32G U48C U60A U67A C81U]: the self-cleavage was found to be 0.07.
Then UAACAGGGGGCCACAGCAGAAGCGUCCACGUCGCGGCCCCUGUCAGAUUCUGGUGAAUCUGCGAAUUCUGCUGUAUGUCUC [U26C A35G A77G], with 1.12; and UAACAGGGGGCCACAGCAGAAGCGUCCAUGUCGCAGCCCCUGUCAGAUUCUGGUGAAUCUGUGAAUUCUGCUGUAUAUCUC [U26C C29U C62U], with 0.12.
To UAACAGGGGGCCACAGCAGAAGCGUCCACGUCGCAGCCCCUGUCGGAUGCUGGUGAAUCUGCGAAUUCUGCUGUAUAUCCC [U26C A45G U49G U80C] belongs 0.26.
For UAACAGGGGGCCACAGCAGAAGCGUCCACGUCGCAGCCCCUGUCAGGUUCUGGCGAGUCUGCGAAUUCUGCUGUAUAUCUC [U26C A47G U54C A57G], the self-cleavage was found to be 0.07.
As to UAACAGGGGGCCACAGCAGAAGCGUCCACGUCGCAGCCCCUGUCGGAUUCUGGUGAAUCUGCGAAUUCCGCUGUAUAUCUC [U26C A45G U69C], the self-cleavage stood at 0.11.
As to UAACAGGGGGCCACAGCAGAAGCGUCCAAGUCGCGGCCCCUGUCAGAUUCUGGUGAACCUGCAAAUUCUGCUGUAUAUCCC [U26C C29A A35G U58C G63A U80C], the self-cleavage was 0.19.
With UAACAGGGGGCCACAGCAGAAGCGUCCACGUCGUAGCCCCUGUCAGAUUCUGGUGAAUCUGCAAAUUCUGCUGUAUAUCUC [U26C C34U G63A], the self-cleavage was determined as 0.2.
As for UAACAGGGGGCCACAGCAGAAGCGUCCACGUCGCAGCCCCUGUCGGAUUCUGGUGAAUCCGCUGACUCUGCUGUAUAUCUC [U26C A45G U60C G63U A64G U66C], the self-cleavage stood at 0.05.
Then UAACAGGGGGCCACAGCAGAAGCGUCCACGUCGCAGCCCCUGUCAGAUUCUGGUGAAUCUGCGUAUUAUGCUGUAUAUCUC [U26C A64U C68A], with 0.35; and UAACAGGGGGCCACAGCAGAAGCGUCCACGUCGCAGCCCGCGUCAGAUUCUGGUGAAUCUGCGAAUUCUGCUGUAUAUCUC [U26C C40G U41C], with 0.14.
UAACAGGGGGCCACAGCAGAAGCGUCCACGUCGCAGCCCCUGUCGGAUUCUGGUGAAACUGCGAAUUCUGCUGUACGUCUC [U26C A45G U58A U76C A77G]: the self-cleavage is 0.1.
Turning to UAACAGGGGGCCACAGCAGAAGCGUCCACGUCGCAGCCCCUGUCUGACUCUGGUGAAUCUGCGAAAUCUGCUGUACAUCUC [U26C A45U U48C U66A U76C], the self-cleavage came to 0.86.
To UAACAGGGGGCCACAGCAGAAGCGUCCACGUCGCAGCACCUGUCGGAUUCUGGUGAAUCUGCGAAUUCUGCAGUAUAUCUC [U26C C38A A45G U72A] belongs 0.06; to UAACAGGGGGCCACAGCAGAAGCGUCCACGUCGCAGCCCUUGUCAGAUUCUGGUGAAUCUGCGAGUCCUGCUGUAUAUCUC [U26C C40U A65G U67C], 0.12; to UAACAGGGGGCCACAGCAGAAGCGUCCACGUCGCGGCCCCCGUCAGAUUCUGGUGAAUCUGCGAAUUCUGCUAUAAAUCUC [U26C A35G U41C G73A U76A], 1.
In the case of UAACAGGGGGCCACAGCAGAAGCGUCCACGUCGCAGCCCCUGUCGGAUUCUGGUGAAUCUGCGAAUUCAGCUGUGUACCUC [U26C A45G U69A A75G U78C], the self-cleavage came to 0.21.
With UAACAGGGGGCCACAGCAGAAGCGUCCACGUCGCAGCCCCUGUCAGAUUCUGGUGAGUCCGCGAAUUCUGCUGUAUAUCUC [U26C A57G U60C], the self-cleavage worked out at 0.37.
Then UAACAGGGGGCCACAGCAGAAGCGUCCACGUCGCAGCCCCUGUCAGAUUCUGGUGUGUCUGCGAAUUCUGCUGUAAAUCUC [U26C A56U A57G U76A], with 0.12; and UAACAGGGGGCCACAGCAGAAGCGUCCACGUCGCAGCCCCUGUCAGAUUCUGGUGGACCUGCGAAUUCUGCUGUAUAUCUC [U26C A56G U58C], with 0.18; and UAACAGGGGGCCACAGCAGAAGCGUCCACGUUGCAGCCCCUGCCGGAUUCUGGUGAAUCAGCGAAUUCUGCUGUAUAUCUC [U26C C32U U43C A45G U60A], with 0.1.
As for UAACAGGGGGCCACAGCAGAAGCGUCCACGUCGCAGCCCCUGUCAGAUUCUGGUGAUUCUGCGAAUUCUGCUGUAUACCUC [U26C A57U U78C], the self-cleavage was found to be 0.12.
